Results published in US5910478A, “Peptidomimetics inhibiting the oncogenic action of p21 ras” (Innapharma, Inc., dated 1999).
Part of at least one peptide drawing is inferred or uncertain, most often the ends. Some entries repeat one wording, which the source may state once for all of them. Residues, ends and D or L forms follow the SMILES beside them. No end group written: not given here.

System: oncogenic ras-p-21
Experiment: not given
Settings: shown earlier by one of the inventors; cited from earlier work

Row | Compound | inhibition of the mitogenic effects of oncogenic ras-p-21
1 | TIEDSYRKQVVID-NH2 [Sequence ID Number 6, Thr-Ile-Glu-Asp-Ser-Tyr-Arg-Lys-Gln-Val-Val-Ile-Asp] | selectively inhibits

System: oncogenic p21
Experiment: anti-oncogenic p21 activity of ras p21 peptide segments (test not specified)
Settings: not given

Row | Compound | anti-oncogenic p21 activity
2 | TIEDSYRKQVVID-NH2 [Sequence ID Number 6, Thr-Ile-Glu-Asp-Ser-Tyr-Arg-Lys-Gln-Val-Val-Ile-Asp] | strong and specific anti-oncogenic p21 activity
3 | YREQIKRVKDSDDVP-NH2 [Sequence ID Number 7, Tyr-Arg-Glu-Gln-Ile-Lys-Arg-Val-Lys-Asp-Ser-Asp-Asp-Val-Pro] | strong and specific anti-oncogenic p21 activity
4 | GNKCDLAARTVE-NH2 [Sequence ID Number 8, Gly-Asn-Lys-Cys-Asp-Leu-Ala-Ala-Arg-Thr-Val-Glu] | strong and specific anti-oncogenic p21 activity

System: oncogenic ras p21
Experiment: Oocyte maturation assay (ras-induced maturation of injected immature oocytes)
Format: cell-based
Settings: peptide dose equivalent to an internal oocyte concentration of 50 nM; co-injected with transforming ras p21; compared with oocytes injected with 0.05 mg/ml oncogenic ras p21

Row | Compound | Present Inhibition of ras-Induced Maturation
5 | CC[C@H](C)[C@H](NC(=O)[C@@H](NC(=O)[C@@H](N)C(C)C)C(C)C)C(N)=O [Val--Val--Ile, Val-Val-Ile] (H-Val-Val-Ile-NH2) | 34
6 | KCDLA-NH2 [compound 2] | 38
7 | TIEDSYRKQVVID-NH2 [compound 6] | 28
8 | CDLAART-NH2 [compound 9] | 65
9 | GNKCDLAARTVE-NH2 [compound 8] | 92
10 | YREQIKRVKDSDDVP-NH2 [compound 7] | 56
11 | CC(C)C[C@H](NC(=O)[C@@H](N)CC(=O)O)C(=O)N[C@@H](C)C(=O)N[C@@H](C)C(N)=O [compound 4] (H-DLAA-NH2) | 22
12 | CC(C)[C@H](NC(=O)[C@H](CCCNC(=N)N)NC(=O)[C@@H](N)CCCCN)C(N)=O [Lys--Arg--Val, Lys-Arg-Val] (H-Lys-Arg-Val-NH2) | 22
